# The campaign covered roughly 310,000 compounds. About 14,000 (4.5%) showed an effect of 50% or more. Effects have a minus sign here. The list shows a part of the results.
# Molecular target: human ether-à-go-go-related gene (hERG) potassium channel (human, UniProt Q12809)
# Assay: primary screen, population patch clamp on CHO cells stably expressing hERG
# 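Note: peak tail current of the secondary pulse compared with the same well before compound.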
# human ether-à-go-go-related gene (hERG) potassium channel, sequence (Q12809 whole entry, looked up): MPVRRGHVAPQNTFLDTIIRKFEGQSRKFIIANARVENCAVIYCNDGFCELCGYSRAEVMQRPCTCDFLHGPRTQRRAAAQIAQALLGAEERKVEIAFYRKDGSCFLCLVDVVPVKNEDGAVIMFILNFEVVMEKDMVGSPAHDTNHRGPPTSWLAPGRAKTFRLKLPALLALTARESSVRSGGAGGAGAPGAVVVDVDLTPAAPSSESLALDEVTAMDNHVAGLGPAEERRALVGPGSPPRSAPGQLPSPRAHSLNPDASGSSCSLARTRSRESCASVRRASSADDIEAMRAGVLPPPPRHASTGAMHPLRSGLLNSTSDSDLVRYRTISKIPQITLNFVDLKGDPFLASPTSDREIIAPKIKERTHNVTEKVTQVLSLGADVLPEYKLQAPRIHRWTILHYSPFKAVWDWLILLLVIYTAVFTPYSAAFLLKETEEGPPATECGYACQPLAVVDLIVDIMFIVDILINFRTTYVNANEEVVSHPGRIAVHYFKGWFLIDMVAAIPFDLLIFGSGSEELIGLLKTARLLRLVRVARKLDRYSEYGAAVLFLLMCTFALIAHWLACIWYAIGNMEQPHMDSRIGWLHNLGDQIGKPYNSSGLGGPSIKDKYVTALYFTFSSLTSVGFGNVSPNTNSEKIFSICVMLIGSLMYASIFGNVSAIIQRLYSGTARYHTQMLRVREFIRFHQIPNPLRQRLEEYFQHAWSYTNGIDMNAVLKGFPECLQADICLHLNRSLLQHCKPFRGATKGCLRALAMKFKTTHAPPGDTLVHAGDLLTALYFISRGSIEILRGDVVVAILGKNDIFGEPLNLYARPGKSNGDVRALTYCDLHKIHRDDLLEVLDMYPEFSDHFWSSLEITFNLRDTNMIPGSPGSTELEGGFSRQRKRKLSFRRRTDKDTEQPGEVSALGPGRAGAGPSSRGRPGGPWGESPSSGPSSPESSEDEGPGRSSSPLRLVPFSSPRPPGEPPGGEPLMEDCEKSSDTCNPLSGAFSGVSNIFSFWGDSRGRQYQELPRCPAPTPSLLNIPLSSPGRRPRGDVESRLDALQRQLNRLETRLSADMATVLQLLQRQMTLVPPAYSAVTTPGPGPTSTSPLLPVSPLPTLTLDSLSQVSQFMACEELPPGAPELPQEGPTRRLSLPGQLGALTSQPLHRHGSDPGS
row,Structure (SMILES),"hERG current change (%, negative = inhibition) at 10uM"
1,COC(CNC(=O)c1ccc2c(c1)ncn2-c1ccc(F)cc1F)OC,11.5%
2,O=C(Nc1ccccc1Cl)c1cc[n+]([O-])cc1,27.8%
3,C=CCNCCCCOc1cccc(Br)c1.O=C(O)C(=O)O,-11.1%
4,CCOC(=O)c1c(C2CC2)csc1NC(C)=O,-27%
5,CC(OC(=O)c1cccs1)C(=O)NCc1cccs1 (stereo not shown),-0.718%
6,CNC(=O)c1c(NC(=O)c2ccc(S(=O)(=O)N3CCCC3)cc2)sc2c1CCN(C(C)C)C2,2.7%
7,O=C(c1ccc(CS(=O)(=O)c2ccccc2)o1)N1CCOCC1,-0.653%
8,CC(C)c1cc(CN2CCOCC2)cc(C(C)C)c1O,1.13%
9,CCN(C(=O)COC(=O)c1cc2c(s1)CCCCC2)C1CCS(=O)(=O)C1 (stereo not shown),12.1%
10,Cc1cc(C)c(OCC(=O)N(Cc2ccccc2)C2CCS(=O)(=O)C2)c(C)c1 (stereo not shown),-36%
11,Cl.c1ccc2c(c1)OCC(C1=NCCN1)O2 (stereo not shown),6.67%
12,CC(=O)NC(CC(=O)Nc1nc(-c2ccccc2)c(C(C)=O)s1)c1ccccc1 (stereo not shown),-44.4%
13,CCOc1ccc(/C=C2\SC(=S)N(CCC(=O)Nc3ccc(C(=O)O)cc3)C2=O)cc1,23.6%
14,COc1ccc(S(=O)(=O)N2CCN(C(=O)C3CCC3)CC2)cc1,-4.42%
15,C=CCn1c(SCC(=O)NCc2ccc3c(c2)OCO3)nnc1C1CCCCC1,-19.8%
16,Cc1cc(NC(=O)COC(=O)CSc2nc3cc(Cl)ccc3n2Cc2ccccc2)no1,-19.9%
17,N=C1/C(=C\c2ccc(OC(=O)c3ccccc3)cc2)C(=O)N=C2SC(N3CCOCC3)=NN12,9.65%
18,CCC(C)N1CCN(C(=O)c2cc(OC)cc(OC)c2)CC1.O=C(O)C(=O)O (stereo not shown),16.6%
19,COc1ccc(/C=C(\NC(=O)c2ccc(C)cc2)C(=O)NCCCn2ccnc2)cc1,-86.4%
20,CCOc1cccc2sc(N(CCCN(C)C)C(=O)c3ccc(C(=O)c4ccccc4)cc3)nc12.Cl,-72.1%
21,COc1ccc(/C=C2\SC(=S)N(CC(=O)Nc3nnc(C)s3)C2=O)cc1,6.86%
22,Cc1cc(C)n2nc(CCCO)nc2n1,49.3%

row,Structure (SMILES),"hERG current change (%, negative = inhibition) at 10uM"
1,Cn1c(=O)oc2cc(S(=O)(=O)CCC(=O)NCCc3ccccc3)ccc21,7.46%
2,O=C(O)c1cc(Cl)c(Cl)cc1C(=O)Nc1cccc2ncccc12,-8.12%
3,CCOc1ccc(CCNc2nc3c(c(=O)n(C)c(=O)n3C)n2CC)cc1OCC,3.1%
4,O=C(CCS(=O)(=O)c1cccc2nsnc12)NC1CCCCC1,13.4%
5,CCOC(=O)C1(CC2CC2)CCN(Cc2cnc(-c3ccccc3C)nc2)CC1,-10.4%
6,CCOC(=O)C(O)(c1ccc(NC(=S)NC(=O)c2ccc(Cl)cc2Cl)cc1)C(F)(F)F (stereo not shown),10.1%
7,C/C(=N\NC(=O)CC#N)c1cc2ccccc2oc1=O,5.92%
8,CCN(CC)S(=O)(=O)c1cccc(-c2nnc(SCC(=O)N3CCC(C(=O)O)CC3)n2N)c1,-4.23%
9,COc1ccc(/C=N/Nc2nc(-c3ccc(C)cc3)c(NC(C)=O)s2)cc1,5.16%
10,Cn1ccc(C(=O)N2CCCc3ccccc32)n1,14.9%
11,C(=N\N(c1ccccc1)c1ccccc1)/c1ccc(N2CCOCC2)s1,-1.1%
12,CCN(CC(=O)NC(=O)NCc1ccco1)Cc1ccccc1,-12.4%
13,CNC(=O)[C@@H]1C[C@H]1[C@@H](NC(=O)OCc1ccccc1)c1ccccc1,-48.3%
14,CSc1ccccc1NC(=O)Nc1cccc(Cl)c1,-1.05%
15,COc1ccc(NC(=O)CN(C)S(=O)(=O)c2ccc(Cl)cc2)cn1,-1.35%
16,Oc1cc(OCc2ccccc2)ccc1-c1[nH]ncc1-c1ccccc1,20.4%
17,O=C(c1c[nH]c2ccc(S(=O)(=O)N3CCOCC3)cc2c1=O)N1CCCC1,-6.08%
18,O=C(NCc1ccco1)C(=O)NCC1OCCN1S(=O)(=O)c1cc(F)ccc1F (stereo not shown),-2.42%
19,CC(=O)NC(CC(=O)N(Cc1ccccc1)c1ccc(C)cc1)c1ccccc1 (stereo not shown),-3.88%
20,CC1(C)CC(=O)C(C#N)=C(NCCCO)C1,7.86%
21,O=C(Oc1ccc(N2C(=O)CCC2=O)cc1)c1ccccc1,10.1%
22,O=[N+]([O-])c1ccccc1/C=N/N1CCN(c2ccccn2)CC1,6.12%

row,Structure (SMILES),"hERG current change (%, negative = inhibition) at 10uM"
1,O=C(c1ccc(-c2cccc(C(F)(F)F)c2)o1)N1CCCC(C(F)(F)F)C1 (stereo not shown),-14.4%
2,COc1ccc(C(=O)OCC(=O)NCC2CCCO2)c(F)c1 (stereo not shown),19.4%
3,Cc1csc(NC(=O)C(F)(F)F)n1,15.6%
4,OCCN(CCO)c1ccc2ccccc2c1,12.4%
5,CCOCC(=O)Nc1cc(Cl)ccc1C,14.5%
6,COc1ccc(C(=O)C2CCCN(Cc3cccn3-c3cccnc3)C2)cc1OC (stereo not shown),-62.9%
7,Cc1cc(C)n(CCN(C)C(=O)C2CCC(=O)N(CCc3cccc(F)c3)C2)n1 (stereo not shown),3.51%
8,CCc1ccc(C(=O)NNc2ccc(Cl)cc2)cc1,-4.07%
9,CN(C)c1ccc(NC(=O)CCn2c(=S)oc3ccccc32)cc1,18.1%
10,Cn1c(=O)n(C)c2cc(NS(=O)(=O)c3ccc(F)cc3)ccc21,1.38%
11,CC1CCC2(CC1)NC(=O)N(CC(=O)N1CCN(C(=O)c3cccs3)CC1)C2=O (stereo not shown),-9.44%
12,CC1CN(/C(=N\S(=O)(=O)c2ccccc2)c2ccccc2)CC(C)O1 (stereo not shown),-8.3%
13,Cc1nn(-c2nc3ccccc3[nH]2)c(=O)c2ccccc12,7.4%
14,CN(Cc1ccccc1)Cc1nc2scc(-c3ccccc3)c2c(=O)[nH]1,10.7%
15,COc1cc([N+](=O)[O-])ccc1NC(=O)CCCOc1cc(C)ccc1C,-3.08%
16,O=C(NCC(O)c1ccccc1)c1cccc(S(=O)(=O)N2CCOCC2)c1 (stereo not shown),-18.1%
17,Cc1nn(-c2ccccc2)c2c1c(C)c(CCC(=O)NCC1CCCO1)c(=O)n2C (stereo not shown),15.9%
18,COc1cc(C(=O)NCCCNc2nc3cc(C)c(C)cc3cc2C#N)cc(OC)c1OC,43.3%
19,CNC(=O)OCc1n(C)cc[n+]1C.[I-],6.69%
20,CCn1c(SCC(=O)c2ccc(C)cc2)nnc1-c1ccoc1C,-9.05%
21,O=C(Cc1ccc(Cl)cc1)Nc1cccc(C(=O)Nc2ccccc2C(=O)O)c1,28.9%
22,CCc1nc(SCC(=O)NNC(=O)c2ccc(OC)cc2)c2ccccc2n1,-2.28%

row,Structure (SMILES),"hERG current change (%, negative = inhibition) at 10uM"
1,CCN(Cc1cc(=O)n2ccsc2n1)Cc1nc2cc(OC)c(OC)cc2c(=O)[nH]1,7.49%
2,COC(=O)c1ccccc1NC(=O)Cn1c(CCC(=O)O)ccc1-c1cccs1,8.8%
3,CCOC(=O)c1c(-c2ccccc2)nnn1-c1nc(OC)nc(N2CCOCC2)n1,-12%
4,CCN1/C(=C/C=C/c2oc3ccc(-c4ccccc4)cc3[n+]2CC)Oc2ccc(-c3ccccc3)cc21.CCOS(=O)(=O)[O-],-2.14%
5,Cc1nnc(OC(C)C)c2nn(-c3ccccc3F)c(C)c12,9.58%
6,COc1ccc(-n2ncc3c(NCCCN4CCOCC4)ncnc32)cc1,-11.5%
7,N[C@H]1CONC1=O,14.2%
8,CCOC(=O)c1c(NC(=O)C(F)(OC)C(F)(F)F)sc(C(=O)N2CCCCC2)c1C (stereo not shown),-42.5%
9,O=C(CS(=O)(=O)Cc1ccccc1)Nc1ccccc1Cl,1.09%
10,O=C(Nc1cccc(F)c1)C1CCCN(S(=O)(=O)c2ccccc2)C1 (stereo not shown),-0.679%
11,CN(C)CCOC(=O)CCc1ccccc1.Cl,1.4%
12,CN(NC(=O)/C=C/C(=O)O)c1ncc(C(F)(F)F)cc1Cl,-7.63%
13,Nc1ccc2c(c1)C(=O)c1ccccc1C2=O,14.1%
14,O=C(Nc1nc(-c2ccccn2)cs1)c1ccc(Cl)s1,-1.34%
15,COc1ccc(-c2cc(C(=O)NCCc3ccc(S(N)(=O)=O)cc3)c3ccccc3n2)cc1,11.3%
16,O=C(C1=C[C@@H](c2coc3ccccc3c2=O)C[C@@H](OCc2ccc(CO)cc2)O1)N1CCCCCCC1,-66.5%
17,Cc1ccc(C(=O)Nc2ccc(C(=O)/C=C/c3cccs3)cc2)cc1,16.2%
18,COc1cccc(N/C(N)=N/c2nc(C(F)(F)F)cc(C(F)(F)F)n2)c1,1.67%
19,Cc1ccc(S(=O)(=O)Nc2cccc(C(=O)NCCCN3CCOCC3)c2)cc1F,-10.2%
20,O=C(Nc1ccc(-c2nc3ccccc3c(=O)o2)cc1)c1ccco1,-4.43%
21,N#Cc1c(/N=C/c2cccs2)sc2c1CCCCC2,-3.08%
22,CCOC(=O)c1cc2c(=O)n3ccccc3nc2n(CC(C)C)c1=NC(=O)c1c(-c2c(F)cccc2Cl)noc1C,5.66%

# Source: publication PMC4336329 (PLoS ONE, 2015)
